Several values for one entry are separate records, joined by “and”; a condition that tells them apart may be missing. Equal values may be shown once. Screen size: about 48,000 compounds; about 1,200 (2.5%) were called active. Inconclusive results, whose numbers are uncertain, are shown with a selection of clear calls.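 Rule for the calls: active = activation of at least 60% and not above a set upper limit (about 1 call in 100 departs from these limits); inconclusive = activation of 40% to 60%, or above that upper limit; inactive = activation under 40%.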 A structure can be active in one record and inactive in another.
These molecules were tested against Probable G-protein coupled receptor 32 (Homo sapiens) (UniProt O75388) (assay: qHTS for Agonists of Human Resolvin D1 Receptor DRV1). Conditions: CHO-K1 GPR32 beta-arrestin PathHunter luminescence, 90 min; at 76.9 µM; stronger effect = higher value; zero percent set by DMSO-only wells.
Chain of UniProt O75388 (O75388 whole entry, looked up, the tested form may be a part): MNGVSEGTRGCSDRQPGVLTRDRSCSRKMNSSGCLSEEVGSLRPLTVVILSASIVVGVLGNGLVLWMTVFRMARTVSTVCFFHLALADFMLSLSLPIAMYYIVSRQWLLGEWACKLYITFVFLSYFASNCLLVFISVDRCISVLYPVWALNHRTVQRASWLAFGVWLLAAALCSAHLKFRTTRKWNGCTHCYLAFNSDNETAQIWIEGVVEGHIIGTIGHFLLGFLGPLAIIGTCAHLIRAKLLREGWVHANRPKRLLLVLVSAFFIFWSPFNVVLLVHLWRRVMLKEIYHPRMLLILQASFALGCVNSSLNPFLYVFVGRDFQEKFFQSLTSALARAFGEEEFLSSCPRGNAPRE
Outline: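 Agonism was scored as beta-arrestin recruitment to ProLink-fused GPR32 in stably transfected CHO-K1 cells, giving a chemiluminescent beta-Gal signal; compounds were incubated 90 min at 37 °C.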
In the case of `CN(Cc1ccc(F)cc1)S(=O)(=O)c1nnc(NC(=O)c2ccc(F)cc2)s1`, the activation is reported as inconclusive: 52.1%. In the case of `Fc1ccccc1OCc1nc(-c2ccc(-n3cccc3)cc2)no1`, the activation is reported as inconclusive: 211%. In the case of `CCOC(=O)c1cnc2ccc(C)cc2c1NCCc1ccc(OC)c(OC)c1`, the activation is reported as inactive: -0.419%. With `CCc1ccc(NC(=O)Cn2c(=O)oc3cc(S(=O)(=O)N4CCCCCC4)ccc32)cc1` the activation was inactive: 21.7%. For `O=S(=O)(Nc1nc2n(n1)C(c1ccc(F)cc1)C=C(c1ccccc1)N2)c1ccc(Cl)cc1` (configuration not stated), the activation was inconclusive: 124%. In the case of `COc1ccccc1-c1cc(C(F)(F)F)nc(S(=O)(=O)CCCC(=O)Nc2cc(OC)c(OC)c(OC)c2)n1`, the activation is reported as active: 80.5%. With `CCCc1cc(C(=O)Nc2c(C)nn(Cc3ccc(C)cc3)c2C)no1` the activation was inconclusive: 140%. With `COc1ccccc1-c1nnc(SCCOc2ccccc2C)o1` the activation was inconclusive: 56.8%. In the case of `CCn1ccc2c(OCC(=O)Nc3ccc(C)c(Cl)c3)cccc2c1=O`, the activation is reported as inconclusive: 144%. `Cc1ccc(S(=O)(=O)N(CC(=O)Nc2ccc(F)cc2F)Cc2ccc(F)cc2)cc1` was tested, and the activation was inactive: 13.5%. In the case of `CCc1ccc(NC(=O)c2cccc(N3CCCS3(=O)=O)c2)cc1`, the activation is reported as inconclusive: 130%. `COc1ccc(NCc2cccn2-c2nnc(N3CCOCC3)s2)cc1OC` was tested, and the activation was inactive: 15.7%. `CCC(=O)N1CCc2cc(S(=O)(=O)NCCC(=O)Nc3ccc(CC)cc3)ccc21` was tested, and the activation was inactive: 8%. With `Cc1ccc(Nc2nc(-c3ccccc3)nc3ccccc23)cc1` the activation was inconclusive: 148%. For `Cc1ccc(CNC(=O)c2c[nH]c3ccc(S(=O)(=O)N4CCOCC4)cc3c2=O)cc1`, the activation was inconclusive: 55.8%. In the case of `CCc1ccccc1S(=O)(=O)Cc1ccc(C(=O)NCc2ccc(Cl)cc2)o1`, the activation is reported as inconclusive: 57.4%. With `CSc1nn(CC(=O)Nc2ccccc2F)c(N)c1S(=O)(=O)c1ccccc1` the activation was inconclusive: 322%. With `O=S(=O)(Nc1cccc(C(F)(F)F)c1)c1ccc(NS(=O)(=O)c2ccc3c(c2)OCCO3)cc1` the activation was inconclusive: 53.5%. For `COc1ccc(Cl)cc1NC(=O)Cn1c(=O)oc2cc(S(=O)(=O)N3CCCCCC3)ccc21`, the activation was inactive: 6.57%. With `CN(C)CCNC(=O)c1ccc(Cn2c(SCc3ccc(F)cc3)nc3cccnc32)cc1` the activation was inactive: 0.643%. In the case of `CCCCCCCCCCCCCC[N+](C)(C)C`, the activation is reported as inactive: 21.7%. With `COc1ccccc1N1CCN(C(=O)Cn2ncc3ccsc3c2=O)CC1` the activation was inactive: 6.2%. With `CC(C)(C)C1CCc2c(sc(NC(=O)c3noc4c3CCCC4)c2C#N)C1` (configuration not stated) the activation was inconclusive: 53%. For `COc1ccc(NC(=O)c2ccc(NC(=O)CCS(=O)(=O)c3cccs3)cc2)cc1OC`, the activation was inconclusive: 124%. `Cc1ccccc1Nc1c(-c2c[nH]c3ccccc23)nc2ccccn12` was tested, and the activation was inactive: -16.1%. In the case of `Cc1cc2oc(C(=O)N(Cc3ccco3)Cc3ccccc3Cl)c(C)c2cc1C`, the activation is reported as inconclusive: 191%. In the case of `CCCCNc1c(C(=O)OCC)c(C)nc2c1cnn2CC`, the activation is reported as active: 75.5% and inactive: -2.78%. `Cc1ccc(OCC(=O)Nc2ccc3c(c2)sc(=O)n3C)cc1` was tested, and the activation was active: 73%. In the case of `Cc1ccc(-c2nc(C(=O)N3CCN(c4ccccc4)CC3)c3n2CCCCC3)cc1`, the activation is reported as inconclusive: 55.1%. `Cc1c(CNCCCc2ccccc2)c(C(=O)O)c(C)n1Cc1ccc(Cl)cc1` was tested, and the activation was active: 94.9%. In the case of `Cc1ccc(CNc2c(C)c(C)nc3nncn23)cc1`, the activation is reported as inconclusive: 51.9%. `COc1c(Cl)cc(Cl)cc1/C=C(\C#N)c1nc2ccccc2[nH]1` was tested, and the activation was inconclusive: 126%.

Reference: PubChem BioAssay AID1346428 (National Center for Advancing Translational Sciences (NCATS), 2018)
Note: 0% is about no effect.
